Measured values from article PMC8600046.
Substitutions are numbered along the chain they refer to. These are yes or no findings as the source states them, for the method shown. Binding seen in cells or lysates may run through a third protein. Some entries that bind do so weakly or less than the wild type. Values belong to the binder of their own block, whether it stands above or below them.

The chains behind the UniProt entries cited, without tags or fusion partners.
UniProt Q9Y5Y5: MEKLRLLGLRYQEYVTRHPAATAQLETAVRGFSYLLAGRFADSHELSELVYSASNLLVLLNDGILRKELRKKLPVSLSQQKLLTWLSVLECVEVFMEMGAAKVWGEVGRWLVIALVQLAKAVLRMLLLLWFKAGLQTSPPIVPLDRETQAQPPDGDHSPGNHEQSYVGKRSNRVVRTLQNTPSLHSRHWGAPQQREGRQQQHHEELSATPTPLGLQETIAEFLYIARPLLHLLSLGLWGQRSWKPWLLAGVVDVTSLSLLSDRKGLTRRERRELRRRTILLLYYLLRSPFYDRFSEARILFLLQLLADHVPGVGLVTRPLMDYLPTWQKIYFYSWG
UniProt Q9Y3D6: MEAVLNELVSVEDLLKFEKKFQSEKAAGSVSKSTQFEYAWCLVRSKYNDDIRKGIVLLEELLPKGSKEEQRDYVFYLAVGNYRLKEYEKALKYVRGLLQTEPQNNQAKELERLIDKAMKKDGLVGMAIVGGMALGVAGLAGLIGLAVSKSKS
UniProt O75381: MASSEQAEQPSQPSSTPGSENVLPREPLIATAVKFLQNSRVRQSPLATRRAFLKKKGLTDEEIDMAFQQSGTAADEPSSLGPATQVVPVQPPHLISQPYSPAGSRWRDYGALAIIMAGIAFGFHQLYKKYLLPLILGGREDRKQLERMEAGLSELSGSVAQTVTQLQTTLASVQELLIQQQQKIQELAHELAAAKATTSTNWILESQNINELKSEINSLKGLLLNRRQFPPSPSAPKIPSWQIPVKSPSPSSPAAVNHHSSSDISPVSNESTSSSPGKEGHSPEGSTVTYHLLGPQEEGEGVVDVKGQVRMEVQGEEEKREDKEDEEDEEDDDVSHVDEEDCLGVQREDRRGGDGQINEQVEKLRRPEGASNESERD
UniProt P33897: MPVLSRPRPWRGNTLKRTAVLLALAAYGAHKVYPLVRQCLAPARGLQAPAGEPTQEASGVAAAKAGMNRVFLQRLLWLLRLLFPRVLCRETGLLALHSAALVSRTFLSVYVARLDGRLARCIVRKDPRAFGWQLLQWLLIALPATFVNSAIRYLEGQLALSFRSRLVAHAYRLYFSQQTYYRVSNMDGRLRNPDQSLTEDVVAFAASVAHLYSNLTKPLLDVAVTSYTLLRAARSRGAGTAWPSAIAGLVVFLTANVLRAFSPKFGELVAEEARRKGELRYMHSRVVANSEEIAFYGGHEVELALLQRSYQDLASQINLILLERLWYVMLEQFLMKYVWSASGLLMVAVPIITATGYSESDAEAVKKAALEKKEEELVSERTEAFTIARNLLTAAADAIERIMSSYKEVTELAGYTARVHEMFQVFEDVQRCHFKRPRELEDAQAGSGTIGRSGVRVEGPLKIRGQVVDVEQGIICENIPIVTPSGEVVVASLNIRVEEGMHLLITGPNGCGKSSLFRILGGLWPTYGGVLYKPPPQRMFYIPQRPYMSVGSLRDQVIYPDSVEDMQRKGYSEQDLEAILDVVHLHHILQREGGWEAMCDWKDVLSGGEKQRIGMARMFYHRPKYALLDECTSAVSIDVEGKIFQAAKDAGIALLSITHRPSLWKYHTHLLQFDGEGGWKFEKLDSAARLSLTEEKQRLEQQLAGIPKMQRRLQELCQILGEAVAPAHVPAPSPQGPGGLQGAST

Experiments:
Assay in all cases: FRET or BRET; BRET in living HEK293 cells co-transfected with Rluc (donor) and YFP (acceptor) fusions, acceptor to donor ratio 3:1; read 48 h later with coelenterazine 30 μM; all eight combinations of N- or C-terminal fusions tested in duplicates; interaction assumed if at least one combination gave a BRET ratio above the threshold of 0.094
PEX16 = PEX16 (UniProt Q9Y5Y5)
FIS1 = FIS1 (UniProt Q9Y3D6)
PEX11B = target: T1, PEX11B (UniProt O96011)
T1 sequence: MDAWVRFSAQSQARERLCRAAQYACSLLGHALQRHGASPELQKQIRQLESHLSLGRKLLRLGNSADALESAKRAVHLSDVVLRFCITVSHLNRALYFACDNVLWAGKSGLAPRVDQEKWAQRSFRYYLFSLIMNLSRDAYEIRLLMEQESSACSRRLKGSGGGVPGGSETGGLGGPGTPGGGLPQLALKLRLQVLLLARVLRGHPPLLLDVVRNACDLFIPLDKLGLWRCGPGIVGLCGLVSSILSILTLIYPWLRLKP

ECH1 = target: T2, ECH1 (UniProt Q13011)
T2 sequence: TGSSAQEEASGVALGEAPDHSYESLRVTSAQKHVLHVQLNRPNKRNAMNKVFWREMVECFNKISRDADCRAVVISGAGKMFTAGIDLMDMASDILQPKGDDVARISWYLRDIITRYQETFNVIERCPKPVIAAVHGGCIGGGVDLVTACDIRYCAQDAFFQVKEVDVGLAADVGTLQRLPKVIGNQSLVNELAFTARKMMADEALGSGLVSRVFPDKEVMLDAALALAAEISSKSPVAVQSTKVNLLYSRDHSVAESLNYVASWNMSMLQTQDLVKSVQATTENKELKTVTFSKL

PXMP2 = target: T3, PXMP2 (UniProt Q9NR77)
T3 sequence: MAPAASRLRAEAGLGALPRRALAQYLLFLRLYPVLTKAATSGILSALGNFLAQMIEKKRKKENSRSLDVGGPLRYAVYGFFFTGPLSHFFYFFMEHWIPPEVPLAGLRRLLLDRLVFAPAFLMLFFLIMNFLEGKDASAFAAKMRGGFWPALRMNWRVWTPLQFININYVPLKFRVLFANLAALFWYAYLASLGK

PEX14 = PEX14 (UniProt O75381)
ABCD1 = ABCD1 (UniProt P33897)
peroxin PEX6 = target: T4, peroxin PEX6 (UniProt Q13608)
T4 sequence: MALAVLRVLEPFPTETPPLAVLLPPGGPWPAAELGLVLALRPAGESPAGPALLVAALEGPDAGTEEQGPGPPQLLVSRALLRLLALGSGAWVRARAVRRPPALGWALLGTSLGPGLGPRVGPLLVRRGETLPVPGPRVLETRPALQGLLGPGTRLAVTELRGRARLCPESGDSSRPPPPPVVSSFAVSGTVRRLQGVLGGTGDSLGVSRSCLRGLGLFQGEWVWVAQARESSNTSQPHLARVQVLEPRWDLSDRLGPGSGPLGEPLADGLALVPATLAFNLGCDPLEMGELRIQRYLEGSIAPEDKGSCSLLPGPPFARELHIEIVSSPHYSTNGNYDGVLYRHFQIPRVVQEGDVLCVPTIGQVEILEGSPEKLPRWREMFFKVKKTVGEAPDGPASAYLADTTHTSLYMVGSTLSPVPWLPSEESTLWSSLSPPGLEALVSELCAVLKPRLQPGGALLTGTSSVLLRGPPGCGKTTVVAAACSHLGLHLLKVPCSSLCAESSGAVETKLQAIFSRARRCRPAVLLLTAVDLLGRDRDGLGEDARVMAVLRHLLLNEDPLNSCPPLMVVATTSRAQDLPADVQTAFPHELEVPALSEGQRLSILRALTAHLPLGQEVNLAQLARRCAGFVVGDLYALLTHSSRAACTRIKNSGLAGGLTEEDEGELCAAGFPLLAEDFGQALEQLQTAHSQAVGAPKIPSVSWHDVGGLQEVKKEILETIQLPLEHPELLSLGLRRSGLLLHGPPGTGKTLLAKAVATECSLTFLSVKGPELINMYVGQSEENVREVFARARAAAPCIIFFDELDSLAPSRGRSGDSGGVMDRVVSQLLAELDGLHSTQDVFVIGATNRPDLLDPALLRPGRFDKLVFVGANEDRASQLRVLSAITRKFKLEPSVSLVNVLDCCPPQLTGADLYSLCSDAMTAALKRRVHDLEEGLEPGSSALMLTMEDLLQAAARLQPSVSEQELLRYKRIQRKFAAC

- binding (PEX16): no binding
- binding (FIS1): binds
- binding (PEX11B): no binding
- binding (ECH1): binds
- binding (PXMP2): binds
- binding (PEX14): binds
- binding (ABCD1): no binding
- binding (peroxin PEX6): no binding
B1: PEX26 p.Pro118Arg (protein, UniProt Q7Z412-1 1-305)
chain: MKSDSSTSAAPLRGLGGPLRSSEPVRAVPARAPAVDLLEEAADLLVVHLDFRAALETCERAWQSLANHAVAEEPAGTSLEVKCSLCVVGIQALAEMDRWQEVLSWVLQYYQVPEKLPRKVLELCILLYSKMQEPGAVLDVVGAWLQDPANQNLPEYGALAEFHVQRVLLPLGCLSEAEELVVGSAAFGEERRLDVLQAIHTARQQQKQEHSGSEEAQKPNLEGSVSHKFLSLPMLVRQLWDSAVSHFFSLPFKKSLLAALILCLLVVRFDPASPSSLHFLYKLAQLFRWIRKAAFSRLYQLRIRD

- binding (PEX16): no binding
- binding (FIS1): binds
- binding (PEX11B): binds
- binding (ECH1): binds
- binding (PXMP2): binds
- binding (PEX14): binds
- binding (ABCD1): binds
- binding (peroxin PEX6): binds
B2: PEX26 p.Leu153Val (protein, UniProt Q7Z412-1 1-305)
chain: B1 chain with R118P, L153V
